One experiment deals with HSkMC. The experiment can be described thus: cytotoxicity call (relative viability < 0.9). Conditions: 10 µM.
The test system of a further experiment is S. aureus RN4220. As to the kind of experiment: growth inhibition call (relative growth <= 0.2). To be noted: 50 µM.

Some of the results follow.

As for `C[C@@H]1CN([C@@H](C)CO)C(=O)Cc2cc(NC(=O)CCCN(C)C)ccc2O[C@H]1CN(C)Cc1ccc(Oc2ccccc2)cc1`, the cytotoxicity call in the experiment on HSkMC is “inactive”. Also, the growth inhibition call in the experiment on S. aureus RN4220 was “inactive”.

Take `Cc1noc(C)c1NC(=O)N(C)C[C@@H]1Oc2ccc(NC(=O)CCCN(C)C)cc2C(=O)N([C@@H](C)CO)C[C@@H]1C`: in the experiment with HSkMC, the cytotoxicity call was “inactive”. Besides, the growth inhibition call in the experiment with S. aureus RN4220 was “inactive”.

In the case of `C[C@@H]1CN([C@@H](C)CO)C(=O)Cc2cc(NC(=O)NC3CCCCC3)ccc2O[C@H]1CN(C)Cc1ccc(C(F)(F)F)cc1`, in the experiment on HSkMC, the cytotoxicity call was “inactive”. For the same compound, the growth inhibition call in the experiment on S. aureus RN4220 is “inactive”.

Regarding `CC(C)NC(=O)Nc1cccc2c1O[C@@H](CN(C)C(=O)Nc1ccc3c(c1)OCO3)[C@@H](C)CN([C@@H](C)CO)C2=O`, the cytotoxicity call with HSkMC is “inactive”. In the experiment with S. aureus RN4220, the growth inhibition call was “inactive”.

In the case of `O=C1CC[C@@H](C(=O)O)N1`, the cytotoxicity call with HSkMC is “inactive”. In addition, in the experiment on S. aureus RN4220, the growth inhibition call is “inactive”.

With `C[C@@H]1CN([C@@H](C)CO)C(=O)c2cc(NC(=O)Nc3ccc(F)cc3)ccc2O[C@@H]1CN(C)Cc1ccc(C(=O)Nc2ccccc2N)cc1`, the cytotoxicity call in the experiment on HSkMC is “inactive”. In addition, the growth inhibition call with S. aureus RN4220 is “inactive”.

Take `C[C@H]1O[C@@H](OC(=O)[C@]23CCC(C)(C)C[C@H]2C2=CC[C@H]4[C@@]5(C)CC[C@H](O[C@@H]6O[C@H](C(=O)O)[C@@H](O)[C@H](O[C@@H]7OC[C@@H](O)[C@H](O)[C@H]7O)[C@H]6O[C@@H]6O[C@H](CO)[C@H](O)[C@H](O)[C@H]6O)[C@@](C)(C=O)[C@@H]5CC[C@@]4(C)[C@]2(C)C[C@H]3O)[C@H](O[C@H]2O[C@@H](CO)[C@@H](O)[C@@H](O)[C@@H]2O)[C@@H](O)[C@H]1O[C@@H]1O[C@H](C)[C@@H](O[C@H]2OC[C@@H](O)[C@@H](O)[C@@H]2O)[C@H](O)[C@@H]1O`: the cytotoxicity call in the experiment on HSkMC was “inactive”. For the same compound, in the experiment on S. aureus RN4220, the growth inhibition call is “inactive”.

With `CN(C)CCN(Cc1ccc(Cl)cc1)c1ccccn1.Cl`, the cytotoxicity call in the experiment on HSkMC is “inactive”. The growth inhibition call in the experiment with S. aureus RN4220 was “inactive”.

For the compound `COc1ccc(NC(=O)N[C@@H]2CC[C@@H](CCNC(=O)CN3CCOCC3)O[C@@H]2CO)cc1`, in the experiment with HSkMC, the cytotoxicity call is “inactive”. The growth inhibition call in the experiment with S. aureus RN4220 was “inactive”.

For `CC(=O)N[C@@H]1C[C@H](O)[C@@H](O)CCC(=O)N[C@H](c2ccccc2)COC1=O`, the cytotoxicity call in the experiment with HSkMC was “inactive”. For the same compound, the growth inhibition call with S. aureus RN4220 was “inactive”.

With `C[n+]1ccn(C[C@@]2(C)[C@H](C(=O)O)N3C(=O)C[C@H]3S2(=O)=O)n1`, in the experiment on HSkMC, the cytotoxicity call was “inactive”. Besides, in the experiment with S. aureus RN4220, the growth inhibition call was “active”.

Turning to `C[C@@H]1CCCCO[C@H](CN(C)C(=O)Nc2ccc(C(F)(F)F)cc2)[C@@H](C)CN([C@H](C)CO)C(=O)c2cc(NS(=O)(=O)c3cccs3)ccc2O1`, the cytotoxicity call in the experiment on HSkMC is “inactive”. In addition, the growth inhibition call in the experiment with S. aureus RN4220 is “inactive”.

As for `C[C@H](CO)N1C[C@H](C)[C@H](CN(C)Cc2ccc3c(c2)OCO3)Oc2ccc(NC(=O)Nc3cccc4ccccc34)cc2C1=O`, in the experiment with HSkMC, the cytotoxicity call was “inactive”. Also, the growth inhibition call in the experiment on S. aureus RN4220 was “inactive”.

On to `COc1ccc(S(=O)(=O)N[C@H]2CC[C@H](CC(=O)N3CCC(Cc4ccccc4)CC3)O[C@@H]2CO)cc1`, for which the cytotoxicity call with HSkMC is “inactive”. The growth inhibition call with S. aureus RN4220 was “inactive”.

On to `COC(=O)C1=CC(CCCO)=C[C@@H](c2ccc(CN3CCCC3)cc2)N(Cc2sc3ccccc3c2Cl)C=C1C(=O)OC`, for which the cytotoxicity call in the experiment on HSkMC is “inactive”. For the same compound, in the experiment on S. aureus RN4220, the growth inhibition call is “inactive”.

As for `C[C@@H]1CN([C@@H](C)CO)C(=O)CCCn2nncc2CO[C@@H]1CN(C)S(=O)(=O)c1ccc2c(c1)OCCCO2`, the cytotoxicity call in the experiment on HSkMC was “inactive”. Moreover, the growth inhibition call in the experiment with S. aureus RN4220 is “inactive”.

Consider `C[C@H](CO)N1C[C@H](C)[C@H](CN(C)S(=O)(=O)c2cccs2)Oc2ccc(NS(=O)(=O)c3ccccc3)cc2CC1=O`, for which the cytotoxicity call in the experiment with HSkMC is “inactive”. Also, the growth inhibition call in the experiment on S. aureus RN4220 was “inactive”.

For `CCC[C@@H](O)C#Cc1cnc2c(c1)C(=O)N([C@H](C)CO)C[C@H](C)[C@H](CN(C)S(=O)(=O)c1cccs1)O2`, in the experiment with HSkMC, the cytotoxicity call was “inactive”. Further, in the experiment on S. aureus RN4220, the growth inhibition call is “inactive”.

On to `CN(C)CC#Cc1ccc([C@H]2[C@@H](CO)N3CCCCN(C(=O)CN(C)C)C[C@H]23)cc1`, for which the cytotoxicity call in the experiment on HSkMC was “inactive”. The growth inhibition call with S. aureus RN4220 is “inactive”.

Take `C[C@H]1CCCCO[C@H](CN(C)S(=O)(=O)c2ccccc2)[C@@H](C)CN([C@@H](C)CO)C(=O)c2cc(NC(=O)Nc3cccc4ccccc34)ccc2O1`: the cytotoxicity call with HSkMC was “inactive”. The growth inhibition call with S. aureus RN4220 was “inactive”.

`COc1ccc(COC[C@]23NC(=O)N(C(=O)c4ccccc4)[C@H](c4ccccc4O2)[C@H]3CO[Si](C)(C)C(C)(C)C)cc1`: in the experiment with HSkMC, the cytotoxicity call is “inactive”. The growth inhibition call in the experiment on S. aureus RN4220 was “inactive”.

Turning to `C[C@H]1CN([C@@H](C)CO)C(=O)c2cccc(NC(=O)c3ccc(-c4nccs4)cc3)c2O[C@H]1CN(C)C(=O)Nc1ccc(C(F)(F)F)cc1`, the cytotoxicity call in the experiment on HSkMC is “inactive”. Also, in the experiment on S. aureus RN4220, the growth inhibition call is “inactive”.

With `CNC[C@@H]1Oc2ccc(NS(=O)(=O)c3cn(C)cn3)cc2CC(=O)N([C@H](C)CO)C[C@@H]1C`, the cytotoxicity call in the experiment with HSkMC is “inactive”. Further, the growth inhibition call with S. aureus RN4220 is “inactive”.

Take `CCCCN(CCCC)CC[C@@H](O)c1cc2c(Cl)cc(Cl)cc2c2cc(C(F)(F)F)ccc12`: the cytotoxicity call with HSkMC was “inactive”. In the experiment with S. aureus RN4220, the growth inhibition call is “inactive”.

As to `COc1ccc(NC(=O)N(C)C[C@H]2Oc3ccc(NS(=O)(=O)c4cn(C)cn4)cc3CC(=O)N([C@H](C)CO)C[C@@H]2C)cc1`, the cytotoxicity call in the experiment on HSkMC (human skeletal muscle cells) was “inactive”. In addition, in the experiment on S. aureus RN4220, the growth inhibition call was “inactive”.

For the compound `C[C@H](CO)N1C[C@H](C)[C@@H](CN(C)Cc2ccc(C(=O)Nc3ccccc3N)cc2)Oc2ccc(NC(=O)Cc3ccccc3)cc2C1=O`, in the experiment with HSkMC, the cytotoxicity call is “inactive”. Also, in the experiment on S. aureus RN4220, the growth inhibition call was “inactive”.

As to `O=C(C[C@H]1C[C@H]2c3cc(NS(=O)(=O)c4ccc(F)cc4)ccc3O[C@H]2[C@H](CO)O1)NCc1cccc(F)c1`, the cytotoxicity call in the experiment with HSkMC was “inactive”. Further, in the experiment on S. aureus RN4220, the growth inhibition call was “inactive”.

The record behind these values is the antibiotic and cytotoxicity screens of Wong et al. (2023).
